According to ChEMBL document CHEMBL4888484, “Replenishing the malaria drug discovery pipeline: Screening and hit evaluation of the MMV Hit Generation Library 1 (HGL1) against asexual blood stage Plasmodium falciparum ,using a nano luciferase reporter read-out” (2022):
Hit rate of the full screen: of about 150,000 compounds, about 540 (0.36%) showed an effect of 50% or more. The list shows a part of the results.

system: Plasmodium falciparum; experiment: Primary screen in NF54 nanoGlo assay, in single point, at 2uM, 72h; a lower Z score goes with more inhibition; type: functional, Erythrocyte; conditions: timepoint 72 hour

Question: `Cc1nc(C[C@H]2CCCN(C(=O)NCc3ccc(F)c(C)c3)C2)no1` was tested. Which “% Inhibition” value did it give?
Answer: -9%

Question: And the Z score?
Answer: 1.03

Question: Which results are given for `O=S(=O)(c1cccc2c1OCCO2)N1CCCO1`?
Answer: % Inhibition: -9%; Z score: 1.54

Question: With `Cc1cc(NC(=O)c2ccc3c(c2)OCO3)cc(-c2nc3ncccc3o2)c1O` as the compound, how does the “% Inhibition” value read?
Answer: -1%

Question: What about the Z score of the same compound?
Answer: 0.16

Question: What does the source list for `Cc1cc(C(=O)N2CCCC2C2CCCO2)ccc1Cl` (stereo unspecified)?
Answer: % Inhibition: -2%; Z score: 0.18

Question: Which results are given for `CC(C)c1nnc(CN2CCOC3(CCCC3)C2)o1`?
Answer: % Inhibition: -5%; Z score: 0.52

Question: How did the “% Inhibition” value turn out when `Cc1nonc1CN(C)C(=O)c1cc(NC(=O)c2ccccc2)cc2ncn(C3CCCC3)c12` was run?
Answer: -13%

Question: And the Z score?
Answer: 2.43

Question: For `O=C(Nc1ccc(C2OC(=O)N(Cc3cccc(F)c3)C2C(=O)NCc2ccc(F)cc2)cc1)c1cccs1` (stereo unspecified), which “% Inhibition” value is on record?
Answer: -12%

Question: And the Z score?
Answer: 1.97

Question: How did the “% Inhibition” value turn out when `Cc1cc(CN(C)C(=O)c2ccoc2C)no1` was run?
Answer: -12%

Question: And the Z score?
Answer: 2.27

Question: How did the “% Inhibition” value turn out when `OCCC#Cc1ccc(-c2nccn2-c2cnc3ccccc3c2)cc1` was run?
Answer: 0%

Question: And the Z score?
Answer: 0.08

Question: For `Nc1ncnc(N2CCC[C@H](n3ccc(C(F)(F)F)n3)C2)c1Cl`, which “% Inhibition” value is on record?
Answer: -1%

Question: What about the Z score of the same compound?
Answer: 0.18

Question: Which “% Inhibition” value does the source give for `O=S(=O)(Nc1cnn(Cc2ccc(Cl)cc2Cl)c1)c1ccc2ccccc2c1` here?
Answer: -9%

Question: And the Z score?
Answer: 1.1

Question: Which results are given for `CCC(=O)NCc1nccc(N(C)C)n1`?
Answer: % Inhibition: -2%; Z score: 0.36

Question: What does the source list for `Cc1noc(C2CCN(C(=O)c3cc4c(s3)CCCCC4)CC2)n1`?
Answer: % Inhibition: 4%; Z score: -0.56

Question: For `CN(C)C(=O)OCCN1CCC[C@H]1c1nc(-c2ccccc2)n[nH]1`, which “% Inhibition” value is on record?
Answer: -16%

Question: And the Z score?
Answer: 1.67

Question: How did the “% Inhibition” value turn out when `COCC(=O)N[C@@H]1CN(C(=O)Cc2ccsc2)C[C@H]1c1nccn1C` was run?
Answer: -3%

Question: What about the Z score of the same compound?
Answer: 0.56

Question: What does the source list for `CC(C)(C)CCC1(O)CC(C(=O)NC[C@H]2CCCOC2)C1` (stereo partly specified)?
Answer: % Inhibition: -5%; Z score: 0.56

Question: With `Cc1nc(C)c(C(=O)N2CC(Nc3ncccn3)C2)s1` as the compound, how does the “% Inhibition” value read?
Answer: -14%

Question: What about the Z score of the same compound?
Answer: 1.65

Question: Which results are given for `NC(=O)c1csc(C(=O)NCC[C@H]2CCc3ccccc32)c1`?
Answer: % Inhibition: -6%; Z score: 1.02

Question: What does the source list for `O=C(CCN1CCN(c2ccccc2)CC1)NC1CC1`?
Answer: % Inhibition: 10%; Z score: -1.53

Question: How did the “% Inhibition” value turn out when `O=C(Nc1cccnc1)NC(C1CC1)C1CC1` was run?
Answer: -1%

Question: And the Z score?
Answer: 0.2

Question: Which results are given for `O=c1c2cc3c(=O)n(-c4ccncc4)c(=O)c3cc2c(=O)n1-c1ccncc1`?
Answer: % Inhibition: -4%; Z score: 0.52

Question: `O=S(=O)(NCCn1ccn2nccc12)c1ccccc1` was tested. Which “% Inhibition” value did it give?
Answer: -19%

Question: And the Z score?
Answer: 2.4

Question: How did the “% Inhibition” value turn out when `CON(C)C[C@H](O)Cn1cc(NC(=O)Nc2cc(C)on2)cn1` was run?
Answer: -5%

Question: And the Z score?
Answer: 0.49

Question: Which “% Inhibition” value does the source give for `O=c1ccc(C(F)(F)F)cn1Cc1cncc(Br)c1` here?
Answer: 0%

Question: And the Z score?
Answer: 0.05

Question: What does the source list for `Clc1ccc(Cl)c(-c2ccc(CNn3cnnc3)o2)c1`?
Answer: % Inhibition: 43%; Z score: -6.16

Question: `Cc1cc(-c2csc(NC(=O)c3ccccn3)n2)c(C)o1` was tested. Which “% Inhibition” value did it give?
Answer: 2%

Question: What about the Z score of the same compound?
Answer: -0.27

Question: What does the source list for `O=C(Cc1ccc2c(c1)OCO2)N1CCC(=C2CC2)CC1`?
Answer: % Inhibition: 8%; Z score: -0.89

Question: What does the source list for `CCOC(=O)c1cc(C)nn1C1CCN(C(=O)COCc2ccccc2)CC1`?
Answer: % Inhibition: -7%; Z score: 1.04

Question: `COc1cccc(OC)c1C(=O)Nc1c(C(=O)N2CCCCCC2)oc2ccccc12` was tested. Which “% Inhibition” value did it give?
Answer: -7%

Question: What about the Z score of the same compound?
Answer: 0.68

Question: How did the “% Inhibition” value turn out when `COc1ccc(N(Cc2ccccc2)S(=O)(=O)c2cccc(C(=O)N(C)Cc3ccco3)c2)cc1` was run?
Answer: -18%

Question: What about the Z score of the same compound?
Answer: 3.38

Question: Which “% Inhibition” value does the source give for `C[C@@H](CNC(=O)Nc1nn(C)cc1C#N)c1nccs1` here?
Answer: 4%

Question: And the Z score?
Answer: -0.42

Question: For `COC(=O)c1cc(Cl)cc(C)c1NC(=O)c1cc2n(n1)CCCO2`, which “% Inhibition” value is on record?
Answer: -11%

Question: And the Z score?
Answer: 2.17

Question: For `O=C(Nc1ccccc1F)[C@@H]1CCc2ccccc2N1`, which “% Inhibition” value is on record?
Answer: -7%

Question: And the Z score?
Answer: 1.12

Question: `CCCN1CCN(C(=O)[C@@H]2CCCn3c(-c4ccccc4)cnc32)CC1` was tested. Which “% Inhibition” value did it give?
Answer: -4%

Question: What about the Z score of the same compound?
Answer: 0.58

Question: Which results are given for `CCN(C)[C@@H](C)C(=O)N(C)Cc1cc(C)cc(C)n1`?
Answer: % Inhibition: -12%; Z score: 1.59

Question: For `COc1cc2c(N(C)C(=O)c3cccc(OC)c3OC)cccc2cc1OC(C)C`, which “% Inhibition” value is on record?
Answer: -17%

Question: And the Z score?
Answer: 2.03

Question: How did the “% Inhibition” value turn out when `CCC(=O)Nc1nnc(-c2cc3cccc(OC)c3o2)o1` was run?
Answer: -7%

Question: What about the Z score of the same compound?
Answer: 1.25

Question: For `Fc1ccc(CN2CCc3nc(N4CCOCC4)nc(Oc4ccc(F)cc4F)c3C2)cc1`, which “% Inhibition” value is on record?
Answer: -6%

Question: What about the Z score of the same compound?
Answer: 0.71

Question: What does the source list for `CC(C)CCN[C@@H](CC(=O)Nc1cccc(Cl)c1Cl)C(=O)O`?
Answer: % Inhibition: -6%; Z score: 1.04

Question: Which “% Inhibition” value does the source give for `Cn1cnc2c(NCC3(n4cccn4)CC3)ncnc21` here?
Answer: -1%

Question: And the Z score?
Answer: 0.16

Question: `COc1cccc(N2CCN(S(=O)(=O)c3ccc4c(c3)CCN4C(=O)NC3CCCC3)CC2)c1` was tested. Which “% Inhibition” value did it give?
Answer: -3%

Question: And the Z score?
Answer: 0.37

Question: How did the “% Inhibition” value turn out when `COC[C@H]1CN(c2ncnc3c2ncn3-c2ccccc2)CCO1` was run?
Answer: -5%

Question: And the Z score?
Answer: 0.51

Question: What does the source list for `Nc1nc(CCc2nc3c([nH]2)C[C@H](c2ccc(F)cc2)CNC3=O)cs1`?
Answer: % Inhibition: 0%; Z score: -0.01
